Test results as given in patent US7423058B2, “Inhibitors of hepatitis C virus NS3 protease” (Schering Corporation, priority 2004, dated 2008).

target: Recombinant heterodimeric HCV NS3/NS4A protease (strain 1a) (Hepatitis C virus genotype 1a, UniProt P27958); assay: Spectrophotometric assay for HCV protease inhibitory activity (chromogenic ester substrates); assay type: biochemical; settings: Table 3, Esters; read-out: Ki* Range

Structure (SMILES)	Ki [µM]
CC(C)(C)[C@H](NC(=O)N[C@@H](C(=O)OCc1ccccc1)c1ccccc1)C(=O)N1C[C@H]2[C@@H]([C@H]1C(=O)NC(CC1CCC1)C(=O)C(N)=O)C2(C)C (stereo partly shown) [compound 4496]	< 0.075
C=CCNC(=O)C(=O)C(CCC(F)(F)F)NC(=O)[C@@H]1[C@@H]2[C@H](CN1C(=O)[C@@H](NC(=O)N[C@H](C(=O)OCc1ccccc1)C1CCCC1)C(C)(C)C)C2(C)C (stereo partly shown) [compound 4498]	< 0.075
CC[C@@H](C)[C@H](NC(=O)N[C@H](C(=O)N1C[C@H]2[C@@H]([C@H]1C(=O)NC(CC1CC1)C(=O)C(N)=O)C2(C)C)C(C)(C)C)C(=O)OCc1ccccc1 (stereo partly shown) [compound 4499]	< 0.075
CC(C)(C)OC(=O)[C@H](NC(=O)N[C@H](C(=O)N1C[C@H]2[C@@H]([C@H]1C(=O)NC(CC1CCC1)C(=O)C(N)=O)C2(C)C)C(C)(C)C)c1ccccc1 (stereo partly shown) [compound 4500]	< 0.075
C=CCOC(=O)C1(NC(=O)N[C@H](C(=O)N2C[C@H]3[C@@H]([C@H]2C(=O)NC(CC2CC2)C(=O)C(N)=O)C3(C)C)C(C)(C)C)CCCCC1 (stereo partly shown) [compound 4501]	< 0.075
CC(C)(C)[C@H](NC(=O)NC1(C(=O)OCc2ccccc2)CC2CCC1C2)C(=O)N1C[C@H]2[C@@H]([C@H]1C(=O)NC(CC1CCC1)C(=O)C(N)=O)C2(C)C (stereo partly shown) [compound 4502]	< 0.075
C=CCNC(=O)C(=O)C(CCC)NC(=O)[C@@H]1[C@@H]2[C@H](CN1C(=O)[C@@H](NC(=O)N[C@H](C(=O)O[C@H](C)c1ccccc1)C(C)C)C(C)(C)C)C2(C)C (stereo partly shown) [compound 4503]	< 0.075
CC(C)(C)OC(=O)CCNC(=O)C(=O)[C@H](CC1CC1)NC(=O)[C@@H]1[C@@H]2[C@H](CN1C(=O)[C@@H](NC(=O)N[C@H](C(=O)OCC1CC1)C(C)(C)C)C(C)(C)C)C2(C)C [compound 4504]	< 0.075
C=CCNC(=O)C(=O)C(CCC)NC(=O)[C@@H]1[C@@H]2[C@H](CN1C(=O)[C@@H](NC(=O)N[C@H](C(=O)OCC1CC1)C1CCCC1)C(C)(C)C)C2(C)C (stereo partly shown) [compound 4505]	< 0.075
CC(C)(C)[C@H](NC(=O)NC1(C(=O)OCc2ccco2)CCCCC1)C(=O)N1C[C@H]2[C@@H]([C@H]1C(=O)NC(CC1CCC1)C(=O)C(N)=O)C2(C)C (stereo partly shown) [compound 4507]	< 0.075
CC[C@H](C)[C@H](NC(=O)N[C@H](C(=O)N1C[C@H]2[C@@H]([C@H]1C(=O)NC(CC1CC1)C(=O)C(N)=O)C2(C)C)C1CCCCC1)C(=O)OC(C)(C)C (stereo partly shown) [compound 4508]	< 0.075
C#CCCC(NC(=O)[C@@H]1[C@@H]2[C@H](CN1C(=O)[C@@H](NC(=O)N[C@H](C(=O)OC(C)(C)C)C(C)(C)C)C(C)(C)C)C21CCCC1)C(=O)C(=O)NCC=C (stereo partly shown) [compound 4510]	< 0.075
CC(C)(C)C[C@H](NC(=O)N[C@H](C(=O)N1C[C@H]2[C@@H]([C@H]1C(=O)NC(CC1CC1(F)F)C(=O)C(N)=O)C2(C)C)C(C)(C)C)C(=O)OCc1ccccc1 (stereo partly shown) [compound 4511]	< 0.075
CC(C)(C)[C@H](NC(=O)NC1(C(=O)OCc2cc(F)cc(F)c2)CCCCC1)C(=O)N1C[C@H]2[C@@H]([C@H]1C(=O)NC(CC1CC1)C(=O)C(N)=O)C2(C)C (stereo partly shown) [compound 4512]	< 0.075
C=CCNC(=O)C(=O)C(CCC)NC(=O)[C@@H]1[C@@H]2[C@H](CN1C(=O)[C@@H](NC(=O)N[C@H](C(=O)OCC1CC1)C1CC1)C(C)(C)C)C2(C)C (stereo partly shown) [compound 4513]	< 0.075
CC(C)(C)[C@@H](NC(=O)N[C@H](C(=O)N1C[C@H]2[C@@H]([C@H]1C(=O)NC(CC1CCC1)C(=O)C(N)=O)C2(C)C)C1CCCCC1)C(=O)OCc1ccccc1 (stereo partly shown) [compound 4514]	< 0.075
CC(C)(C)[C@H](NC(=O)N[C@H](C(=O)N1C[C@H]2[C@@H]([C@H]1C(=O)NC(CC1CCC1)C(=O)C(N)=O)C2(Cl)Cl)C1Cc2ccccc2C1)C(=O)OCc1ccccc1 (stereo partly shown) [compound 4515]	< 0.075
CC[C@H](NC(=O)N[C@H](C(=O)N1C[C@H]2[C@@H]([C@H]1C(=O)NC(CC1CC1)C(=O)C(N)=O)C2(C)C)C(C)(C)C)C(=O)OCc1ccccc1 (stereo partly shown) [compound 4516]	< 0.075
COC(=O)C(C)(C)NC(=O)N[C@H](C(=O)N1C[C@H]2[C@@H]([C@H]1C(=O)NC(CC1CCC1)C(=O)C(N)=O)C2(Cl)Cl)C1CCCCC1 (stereo partly shown) [compound 4517]	< 0.075
CC(C)(C)[C@H](NC(=O)N[C@H](C(=O)N1C[C@H]2[C@@H]([C@H]1C(=O)NC(CC1CC1)C(=O)C(N)=O)C2(Cl)Cl)C(C)(C)C)C(=O)OCc1ccccc1 (stereo partly shown) [compound 4518]	< 0.075
CC(C)[C@](C)(NC(=O)N[C@H](C(=O)N1C[C@H]2[C@@H]([C@H]1C(=O)NC(CC1CCC1)C(=O)C(N)=O)C2(C)C)C1CCCCC1)C(=O)OCc1ccccc1 (stereo partly shown) [compound 4519]	< 0.075
CC[C@H](C)[C@H](NC(=O)N[C@H](C(=O)N1C[C@H]2[C@@H]([C@H]1C(=O)NC(CC1CC1)C(=O)C(N)=O)C2(C)C)C(C)(C)C)C(=O)OCc1ccc(OC)cc1 (stereo partly shown) [compound 4520]	< 0.075
C=CCNC(=O)C(=O)C(CCC)NC(=O)[C@@H]1[C@@H]2[C@H](CN1C(=O)[C@@H](NC(=O)N[C@H](C(=O)OCc1ccccc1)C1CC1)C(C)(C)C)C2(C)C (stereo partly shown) [compound 4522]	< 0.075

Structure (SMILES)	Ki [µM]
CC(C)(C)OC(=O)CCNC(=O)C(=O)C(CC1CC1)NC(=O)[C@@H]1[C@@H]2[C@H](CN1C(=O)[C@@H](NC(=O)N[C@H](C(=O)OCc1ccccc1)C1CC1)C(C)(C)C)C2(C)C (stereo partly shown) [compound 4523]	< 0.075
C=CCNC(=O)C(=O)C(CCC)NC(=O)[C@@H]1[C@@H]2[C@H](CN1C(=O)[C@@H](NC(=O)N[C@H](C(=O)OC(C)(C)C)C(C)(C)C)C1CCCC1)C2(C)C (stereo partly shown) [compound 4524]	< 0.075
C=CCNC(=O)C(=O)C(CCC)NC(=O)[C@@H]1[C@@H]2[C@H](CN1C(=O)[C@@H](NC(=O)N[C@H](C(=O)OC(C)(C)C)C(C)C)C1CCCC1)C2(C)C (stereo partly shown) [compound 4525]	< 0.075
C=CCNC(=O)C(=O)C(CC1CC1)NC(=O)[C@@H]1[C@@H]2[C@H](CN1C(=O)[C@@H](NC(=O)N[C@H](C(=O)OC(C)(C)C)C(C)C)C1(C)CCCCC1)C2(C)C (stereo partly shown) [compound 4526]	< 0.075
CC(C)(C)[C@H](NC(=O)NC1(C(=O)OCc2ccccc2)CCCCC1)C(=O)N1C[C@H]2[C@@H]([C@H]1C(=O)NC(CC1CCC1)C(=O)C(N)=O)C2(Cl)Cl (stereo partly shown) [compound 4527]	< 0.075
C#CCCC(NC(=O)[C@@H]1[C@@H]2[C@H](CN1C(=O)[C@@H](NC(=O)NC(C(=O)OC(C)(C)C)C(C)(C)C)C(C)(C)C)C2(C)C)C(=O)C(=O)NCC#C (stereo partly shown) [compound 4528]	< 0.075
CC(C)[C@H](NC(=O)N[C@H](C(=O)N1C[C@H]2[C@@H]([C@H]1C(=O)NC(CC1CC1)C(=O)C(N)=O)C2(Cl)Cl)C(C)(C)C)C(=O)OC1Cc2ccccc2C1 (stereo partly shown) [compound 4529]	< 0.075
CC(C)(C)[C@@H](NC(=O)N[C@@H](C(=O)N1C[C@H]2[C@@H]([C@H]1C(=O)NC(CC1CCC1)C(=O)C(N)=O)C2(Cl)Cl)C(C)(C)C)C(=O)OC1Cc2ccccc2C1 (stereo partly shown) [compound 4530]	< 0.075
C[C@@H]1CCCC1OC(=O)[C@@H](NC(=O)N[C@H](C(=O)N1C[C@H]2[C@@H]([C@H]1C(=O)NC(CC1CC1)C(=O)C(N)=O)C2(C)C)C(C)(C)C)C(C)(C)C (stereo partly shown) [compound 4531]	< 0.075
CC(C)(C)OC(=O)C1(NC(=O)N[C@H](C(=O)N2C[C@H]3[C@@H]([C@H]2C(=O)NC(CC2CCC2)C(=O)C(N)=O)C3(C)C)C(C)(C)C)CCCCC1 (stereo partly shown) [compound 4532]	< 0.075
CCC(CC)(NC(=O)N[C@H](C(=O)N1C[C@H]2[C@@H]([C@H]1C(=O)NC(CC1CC1)C(=O)C(N)=O)C2(C)C)C(C)(C)C)C(=O)OCC1CC1 (stereo partly shown) [compound 4533]	< 0.075
CC(C)[C@H](NC(=O)N[C@H](C(=O)N1C[C@H]2[C@@H]([C@H]1C(=O)NC(CC1CC1)C(=O)C(N)=O)C2(C)C)C(C)C)C(=O)OCc1ccccc1 (stereo partly shown) [compound 4534]	< 0.075
CC(C)(C)[C@H](NC(=O)NC1(C(=O)OCc2ccccc2)CCCCC1)C(=O)N1C[C@H]2[C@@H]([C@H]1C(=O)NC(CCC(F)(F)F)C(=O)C(N)=O)C2(C)C (stereo partly shown) [compound 4535]	< 0.075
C=CCNC(=O)C(=O)C(CCCC)NC(=O)[C@@H]1[C@@H]2[C@H](CN1C(=O)[C@@H](NC(=O)N[C@H](C(=O)OC(C)C1CC1)C(C)C)C(C)(C)C)C2(Cl)Cl (stereo partly shown) [compound 4537]	< 0.075
C=CC(OC(=O)C1(NC(=O)N[C@H](C(=O)N2C[C@H]3[C@@H]([C@H]2C(=O)NC(CC2CC2)C(=O)C(N)=O)C3(C)C)C(C)(C)C)CCCCC1)c1ccccc1 (stereo partly shown) [compound 4539]	0.076 to 0.25
CC(C)(C)[C@H](NC(=O)NC1(C(=O)OCc2ccccc2)CCCCC1)C(=O)N1C[C@H]2[C@@H]([C@H]1C(=O)NC(CC1CCC1)C(=O)C(N)=O)C2(C)C (stereo partly shown) [compound 4540]	0.076 to 0.25
CC1(C)[C@@H]2[C@@H](C(=O)NC(CC3CC3)C(=O)C(N)=O)N(C(=O)[C@@H](NC(=O)NC3(C(=O)OCc4ccccc4)CCCCC3)C3CCCCC3)C[C@@H]21 (stereo partly shown) [compound 4541]	0.076 to 0.25
CC(C)(C)[C@H](NC(=O)N[C@H](C(=O)N1C[C@H]2[C@@H]([C@H]1C(=O)NC(CC1CC1)C(=O)C(N)=O)C2(C)C)C(C)(C)C)C(=O)OCc1ccccc1 (stereo partly shown) [compound 4542]	0.076 to 0.25
C#CCOC(=O)C1(NC(=O)N[C@H](C(=O)N2C[C@H]3[C@@H]([C@H]2C(=O)NC(CC2CC2)C(=O)C(N)=O)C3(C)C)C(C)(C)C)CCCCC1 (stereo partly shown) [compound 4543]	0.076 to 0.25
C[C@@H](OC(=O)C1(NC(=O)N[C@H](C(=O)N2C[C@H]3[C@@H]([C@H]2C(=O)NC(CC2CC2)C(=O)C(N)=O)C3(C)C)C(C)(C)C)CCCCC1)c1ccccc1 (stereo partly shown) [compound 4544]	0.076 to 0.25
CC(C)[C@H](NC(=O)N[C@H](C(=O)OCc1ccccc1)C(C)(C)C)C(=O)N1C[C@H]2[C@@H]([C@H]1C(=O)NC(CC1CC1)C(=O)C(N)=O)C2(C)C (stereo partly shown) [compound 4545]	0.076 to 0.25
C=CCNC(=O)C(=O)C(CCCC)NC(=O)[C@@H]1[C@@H]2[C@H](CN1C(=O)[C@@H](NC(=O)N[C@H](C(=O)OC(C)(C)C)C(C)C)C1Cc3ccccc3C1)C2(C)C (stereo partly shown) [compound 4546]	0.076 to 0.25
C=CCNC(=O)C(=O)C(CC1CC1)NC(=O)[C@@H]1[C@@H]2[C@H](CN1C(=O)[C@@H](NC(=O)N[C@H](C(=O)OC(C)(C)C)C(C)C)C1Cc3ccccc3C1)C2(C)C (stereo partly shown) [compound 4547]	0.076 to 0.25
